The list shows a part of the results. The energies were worked out here from pooled read counts, against the library average; single values are noisy.
target: T1, Pho4 (S. cerevisiae) (UniProt P07270); test: relative binding free energy (BET-seq); higher = weaker binding; conditions: reference: library average
T1 sequence: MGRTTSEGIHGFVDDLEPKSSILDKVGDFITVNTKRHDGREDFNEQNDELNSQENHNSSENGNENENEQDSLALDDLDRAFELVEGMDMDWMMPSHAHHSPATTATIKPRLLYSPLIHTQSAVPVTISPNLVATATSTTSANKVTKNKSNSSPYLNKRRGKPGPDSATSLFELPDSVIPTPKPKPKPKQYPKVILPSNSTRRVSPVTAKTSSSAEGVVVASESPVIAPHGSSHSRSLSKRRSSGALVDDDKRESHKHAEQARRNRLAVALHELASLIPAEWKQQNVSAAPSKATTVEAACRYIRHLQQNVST

Sequence	relative binding free energy
GTGAACACGTGGGTGG	-0.167 kJ/mol
TTATTCACGTGTTACG	1 kJ/mol
TTCATCACGTGTTCGG	0.293 kJ/mol
TTGTGCACGTGCACGG	-0.711 kJ/mol
TTGCGCACGTGATTGT	0.209 kJ/mol
TTGCGCACGTGAGTTG	0.377 kJ/mol
TTTGGCACGTGGTCTC	-0.92 kJ/mol
GTGTGCACGTGCTAGT	-0.502 kJ/mol
GGTGTCACGTGTGTGT	0.586 kJ/mol
AATGTCACGTGCCGGT	0.711 kJ/mol
TTTCGCACGTGTGATA	0 kJ/mol
AGAAGCACGTGATGGG	0.586 kJ/mol
TGTGGCACGTGTGTAG	-0.167 kJ/mol
AGGAGCACGTGTGGCG	-0.0418 kJ/mol
ATATTCACGTGAAGGG	1.76 kJ/mol
TATTTCACGTGGTAGA	1.21 kJ/mol
GGCGTCACGTGTCGAG	0.669 kJ/mol
TGAAGCACGTGGTTAA	-0.586 kJ/mol
ATAGTCACGTGAAATA	1.55 kJ/mol
TGAAGCACGTGGTGCT	-0.418 kJ/mol
GTAGTCACGTGTGTAT	0.795 kJ/mol
CGGGGCACGTGAAGCT	0.544 kJ/mol
GTTCTCACGTGGGGTC	0.795 kJ/mol
AAAATCACGTGAGAGT	2.05 kJ/mol
TGTGTCACGTGATTTG	0.753 kJ/mol

Sequence	relative binding free energy
GGGGTCACGTGCTGGG	0.377 kJ/mol
CAGGGCACGTGGAGGA	-1 kJ/mol
TGCCTCACGTGTGGGA	1.13 kJ/mol
CGAGTCACGTGGGGAT	-0.251 kJ/mol
AATGACACGTGGTGAG	0.0837 kJ/mol
TCAGTCACGTGTAAGG	0.711 kJ/mol
CAGGGCACGTGGTGTA	-0.879 kJ/mol
ATAGTCACGTGGGCGC	0.0837 kJ/mol
ATATGCACGTGTTGCG	0.0837 kJ/mol
CATGTCACGTGTAGGT	0.544 kJ/mol
TTATGCACGTGATAAA	0.126 kJ/mol
GTAACCACGTGTATGT	0.628 kJ/mol
GTCAGCACGTGGGCTG	-0.335 kJ/mol
TGGTACACGTGGGACG	0 kJ/mol
ATGATCACGTGTAGGA	1 kJ/mol
GCGGGCACGTGGAGGT	-0.126 kJ/mol
TGGCTCACGTGGTCGT	0.544 kJ/mol
AGTTGCACGTGTACGG	0.293 kJ/mol
TTGATCACGTGAATAA	2.01 kJ/mol
TTGGTCACGTGAGATT	1.21 kJ/mol
TGTGCCACGTGAATTG	0.502 kJ/mol
GGGGTCACGTGGCGTT	0.711 kJ/mol
TCTTGCACGTGCGGTT	-0.167 kJ/mol
GGAAACACGTGGGATT	-0.167 kJ/mol
GGTTGCACGTGGGGAT	-0.251 kJ/mol

Sequence	relative binding free energy
GGACTCACGTGTTTGT	1.05 kJ/mol
ATGATCACGTGTGAAA	1.05 kJ/mol
ATGCTCACGTGAGTGG	0.711 kJ/mol
TTTGGCACGTGGGGTC	-0.669 kJ/mol
GAAATCACGTGGGGTT	0.92 kJ/mol
GGTTACACGTGATCGG	1.21 kJ/mol
TAGTTCACGTGGCGAG	1.17 kJ/mol
TCTTTCACGTGTTTTC	1.42 kJ/mol
TGTTTCACGTGGCAGA	0.879 kJ/mol
TATAGCACGTGGTTGG	-0.795 kJ/mol
GAATTCACGTGGGGTA	0.544 kJ/mol
AAGGTCACGTGGTAAA	0.544 kJ/mol
TGGGACACGTGTTTTC	-0.0418 kJ/mol
AGTATCACGTGACGGT	0.753 kJ/mol
GGATGCACGTGTTCTT	0.837 kJ/mol
GTATGCACGTGAAAGG	1.34 kJ/mol
TCTTGCACGTGGTTCT	0.293 kJ/mol
GTGGTCACGTGAAGTG	1.38 kJ/mol
CGGTACACGTGGGAAG	0 kJ/mol
TGTGTCACGTGTCTAA	0.209 kJ/mol
TTTAACACGTGAAGGA	0.711 kJ/mol
CATTGCACGTGAAGGT	0.167 kJ/mol
AATAGCACGTGCGAGT	0 kJ/mol
AGTAGCACGTGTGCTA	0.251 kJ/mol
GGCGACACGTGGTGTT	-0.167 kJ/mol

Sequence	relative binding free energy
TTATACACGTGACGTG	0.167 kJ/mol
TAAGACACGTGGTGGT	-0.335 kJ/mol
TATAGCACGTGGATTA	0.0837 kJ/mol
TCATGCACGTGAAGTG	0.502 kJ/mol
GGTATCACGTGGACGA	1.38 kJ/mol
TTCTGCACGTGGAGTT	0.251 kJ/mol
TGTAGCACGTGGTTGT	-0.418 kJ/mol
GGGGCCACGTGAGTTT	1.13 kJ/mol
GCCGGCACGTGTAGGG	0.126 kJ/mol
GAGAGCACGTGTTGGA	0.167 kJ/mol
GAGGACACGTGTTTCG	0.586 kJ/mol
AAATGCACGTGTGTTA	0.502 kJ/mol
TTCTTCACGTGTATGC	1.17 kJ/mol
GAAGGCACGTGCGGGC	-0.502 kJ/mol
TGCCGCACGTGGTAGT	0 kJ/mol
TACTACACGTGTTTGG	0.209 kJ/mol
GGTTGCACGTGGGTAC	-0.586 kJ/mol
AGAAGCACGTGTTGAG	-0.0837 kJ/mol
GTTGGCACGTGCTTGC	-0.167 kJ/mol
TCATTCACGTGGGCGG	0.293 kJ/mol
GTATACACGTGTGGTA	0.335 kJ/mol
CGCAGCACGTGTTGGG	0.126 kJ/mol
AGTGGCACGTGTTATT	-0.0418 kJ/mol
TTTAACACGTGTGTCT	-0.46 kJ/mol
CGTGGCACGTGACAGG	0.0418 kJ/mol

Sequence	relative binding free energy
TTTAGCACGTGAGGGC	0.418 kJ/mol
GGCGTCACGTGGAGTT	0.753 kJ/mol
AGCGGCACGTGGGGGA	-1.17 kJ/mol
TTTAACACGTGTAGGG	0.209 kJ/mol
TACGGCACGTGGGTCG	-1.55 kJ/mol
TGGGTCACGTGTAACA	0.753 kJ/mol
TGTTGCACGTGACTTT	0 kJ/mol
GTCGGCACGTGTGCGA	0.377 kJ/mol
CTGGTCACGTGTTTAA	0.586 kJ/mol
CATTGCACGTGTTTAG	-0.293 kJ/mol
GTTTTCACGTGAACTT	1.63 kJ/mol
TGGGTCACGTGGGGCA	-0.418 kJ/mol
TACGTCACGTGGGGCG	-0.669 kJ/mol
TGAAACACGTGGGCAG	-0.418 kJ/mol
ATTGACACGTGAGGCT	0.669 kJ/mol
TAGACCACGTGTTGGT	-0.377 kJ/mol
CTACTCACGTGTGGGG	0.502 kJ/mol
TTGGGCACGTGCAATG	-0.209 kJ/mol
CGTTTCACGTGTCGGC	1.92 kJ/mol
TTCTTCACGTGTGGTA	1.09 kJ/mol
TGGTGCACGTGTATCT	0.377 kJ/mol
GGCCGCACGTGAGGGT	1.05 kJ/mol
GGACCCACGTGTGTGG	-0.46 kJ/mol
GATTACACGTGGGGTG	0.167 kJ/mol
TTTCTCACGTGTATAA	1.26 kJ/mol

Sequence	relative binding free energy
TCTTTCACGTGGCGGA	1.51 kJ/mol
GAGATCACGTGGGGGA	0.126 kJ/mol
TTAGGCACGTGCATTG	-0.962 kJ/mol
GGTGGCACGTGGACGT	-0.335 kJ/mol
AGGTGCACGTGAGTCT	0.167 kJ/mol
ACGAGCACGTGGGAGT	-1.09 kJ/mol
GTTGTCACGTGTATCG	0.837 kJ/mol
GTGGTCACGTGGGATT	0.628 kJ/mol
GGTTGCACGTGGGGAC	-0.502 kJ/mol
TTAGCCACGTGTGTGG	-0.418 kJ/mol
AAGAGCACGTGTTAGG	-0.502 kJ/mol
TTTGGCACGTGTGGGC	0 kJ/mol
GTGTTCACGTGCGGTG	1.05 kJ/mol
AGAAGCACGTGTGGAT	-0.628 kJ/mol
CTAGTCACGTGGGGTT	-0.335 kJ/mol
TAGCACACGTGGGGAG	-0.544 kJ/mol
AGTGGCACGTGGGAAC	-0.418 kJ/mol
ACCGGCACGTGGGGGT	-0.377 kJ/mol
CGGTTCACGTGGGGAA	0.711 kJ/mol
TGGCACACGTGGGCGA	-0.126 kJ/mol
CTGAGCACGTGTGGGT	-0.586 kJ/mol
